Results on six molecules are retold here after paper PMC12136788.

The other results are listed elsewhere or left out.

The labels stand for the following.
T1: UNK ZnF1-3 (human, UniProt Q9C0B0 31-174)
T1 sequence: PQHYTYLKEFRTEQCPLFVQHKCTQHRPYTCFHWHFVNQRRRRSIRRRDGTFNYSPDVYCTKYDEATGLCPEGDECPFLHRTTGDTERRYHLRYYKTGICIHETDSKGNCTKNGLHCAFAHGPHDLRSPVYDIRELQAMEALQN

B1: chr4:45007048:45007049:-_ENSMUSG00000049657_ENSMUST00000055028|mus_hu|FALSE|FALSE (ssRNA)
RNA: GGGAGUUCUACAGUCCGACGAUCGUUCUGAUUUGCAGUAAAGUUAUUUCCUCUGCUCUUGUUAAGAAAAUUCGAAAUACUAAAAGUGGACUUAUGCUCUAGGUUAUUUGUGACUUCCAAAAUAUGGAUAUCACCUACCCUGUCCAACAGAGGAUUGAGCAUCA
B2: chr11:77843920:77843921:+_ENSMUSG00000037791_ENSMUST00000049167|mus_mus|motif|central (ssRNA)
RNA: GGGAGUUCUACAGUCCGACGAUCGUUUUUAUAUACAGAAUACAGGAAAGUUUCUGUCAAGUCUAAAACAUUACAAUUACGGUGUACAUUGGUUGUGGGGAAGAGGAAGUAUCUGGGGUGAGGAGGAAGAGAAGUGGUAAGAACCAACAGAGGAUUGAGCAUCA
B3: chr1:21097501:21097502:-_ENSG00000127483_ENST00000312239|hu_mus|FALSE|FALSE (ssRNA)
RNA: GGGAGUUCUACAGUCCGACGAUCCUCUCUCUUCAGCGCUUGCUUGAGCAGAUAGCCCCUUCUCUCCAGACCCAGAGACGGGUACUUAUGAAUGAUGUACUUUCGAAUCGCAACCACCGAGGCGCCAGUCUUCUGGAAGCAUGCCAACAGAGGAUUGAGCAUCA
B4: chr8:104447970:104447971:+_ENSG00000164934_ENST00000297579|hu_hu|hu_hu_hu_mus_False|18_78 (ssRNA)
RNA: GGGAGUUCUACAGUCCGACGAUCAUACACUUCCCUGCUUCGGCUCUUGUCCACAGGAAAGAUUCGAAUAGACUUAUCAAAGCUGGCAGACACAAAUUCCUUCCCAGUGGGAGAGUAAUCCACAUCAAGUACUGCAGACACGUGCAACAGAGGAUUGAGCAUCA
B5: chr10:1063573:1063574:+_ENSG00000107937_ENST00000545048|hu_hu|FALSE|FALSE (ssRNA)
RNA: GGGAGUUCUACAGUCCGACGAUCCUUUCUUCUGGAGGUUUAUUUUGGAUAAAAUAGUUGAAGACAGACUACAAUGAGACAUUGUAAAAUAAGACUAGAAAAUAAUUUAAGAGCGUAUUUUAAGCACGGGAUUCCGACACACUCCAACAGAGGAUUGAGCAUCA
B6: chr14:31888013:31888014:+_ENSMUSG00000042323_ENSMUST00000112095|mus_mus|motif|central (ssRNA)
RNA: GGGAGUUCUACAGUCCGACGAUCGCUGAGUGCUGGAGAAAGAAGGAUCUCUCCAUUUUUGCAGAGUUCAUCACGAAUUCGGAUAAAAAACUGCUGAAGUUCUACAGCAUCCUCAUAUAUUUCGGAAUCUGUCCGGUUCAUCCUCAACAGAGGAUUGAGCAUCA

This assay addresses T1, UNK ZnF1-3. As to the kind of experiment: nsRBNS (natural sequence RNA bind-n-seq); RBNS binding buffer (assumed for nsRBNS): 25 mM Tris pH 7.5, 150 mM KCl, 3 mM MgCl2, 0.01% Triton X-100, 500 ug/ml BSA, 20 U/ml SUPERase-In, 4 C; UNK is unkempt and MSI1 is Musashi-1; names of the RNAs are library labels; protein concentration not given here; high values mean tight binding.
In turn, B1 came in with a binding signal of 0.705 enrichment R.

B2 returned a binding signal of 1.9 enrichment R.

Regarding B3, the binding signal is 1.03 enrichment R.

B4: the binding signal is 0.958 enrichment R.

The molecule B5 came in with a binding signal of 1.49 enrichment R.

On to B6, for which the binding signal was determined as 1.04 enrichment R.
